Measured values published in PubChem BioAssay AID624417 (National Center for Advancing Translational Sciences (NCATS), 2012).
Out of some 410,000 compounds screened, about 6,400 (1.6%) were called active. The shares of active, inactive and inconclusive entries below differ from those in the screen. The call rests on the fitted dose curve; in most records, active means well fitted inhibition curve with a large enough effect; inconclusive means small, poorly fitted or top-dose-only effect; inactive means no such curve, though single readings can be large or run the other way. Potencies of inconclusive entries are left out as doubtful fits.

Molecular target: Glucagon-like peptide 1 receptor (Homo sapiens) (UniProt P43220)
Test: qHTS of GLP-1 Receptor Inverse Agonists (Inhibition Mode); further: nearly all actives have a fitted effect of over 55% in size
Conditions: HEK293 GLP-1R CRE-luciferase, luminescence, 24 h, GLP-1R form is constitutively active; series mostly up to 38.3 µM
Summary of the method: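 Cells are plated, allowed 12 hours at 37 deg C, then treated with compounds for 24 hr before luciferase detection reagent is added and luminescence is read after 12 min at room temperature. The HEK293 line carries constitutively active GLP-1R with a cAMP-responsive reporter.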
Potency means the concentration at half of the fitted maximal effect; tags describe the fitted curve by direction and shape.

Chain of UniProt P43220 (P43220 whole entry, looked up): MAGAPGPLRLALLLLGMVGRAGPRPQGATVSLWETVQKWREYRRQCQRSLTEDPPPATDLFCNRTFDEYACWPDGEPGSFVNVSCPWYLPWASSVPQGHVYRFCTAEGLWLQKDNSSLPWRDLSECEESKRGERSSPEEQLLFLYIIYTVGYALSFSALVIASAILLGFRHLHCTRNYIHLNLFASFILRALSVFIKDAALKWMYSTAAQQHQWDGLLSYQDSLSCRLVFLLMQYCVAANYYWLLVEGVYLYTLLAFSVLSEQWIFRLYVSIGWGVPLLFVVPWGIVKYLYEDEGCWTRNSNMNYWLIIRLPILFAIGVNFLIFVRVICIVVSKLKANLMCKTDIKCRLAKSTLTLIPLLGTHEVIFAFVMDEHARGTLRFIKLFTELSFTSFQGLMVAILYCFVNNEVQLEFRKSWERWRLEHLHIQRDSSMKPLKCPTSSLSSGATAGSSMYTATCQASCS

**Q.** With `O=C(CSc1ncccn1)NC(=O)Nc1ccc2c(c1)OCCO2` as the molecule, how does the Potency read?
**A.** inactive

**Q.** For `Cc1ccc(C(=O)NCCN2C3=NC[C@H](C)N3C[C@H]2Cc2ccc(O)cc2)cc1Br`, which Potency is on record?
**A.** inactive

**Q.** For `CCOc1ccc(OCC)c(NC(=O)C2CCCN(C(=O)c3ccc(Cl)cc3)C2)c1` (centres undefined), which Potency is on record?
**A.** inconclusive [inhibitor, partial curve, poor fit]

**Q.** `C#CCOCCOCCOCCNc1nc(N2CCN(C(=O)CCCCCCCCCCNC(=O)[C@H](CCCCN)n3cc(C[C@@H](C)CC)nn3)CC2)nc(N2CCN(C(=O)CCCCCCCCCCNC(=O)[C@@H]([C@H](C)O)n3cc(C)nn3)CC2)n1` was tested. Which Potency did it give?
**A.** inconclusive [inhibitor, single point]

**Q.** With `O=C(NCC(c1ccco1)N1CCN(c2ccccc2)CC1)OCc1ccccc1` (centres undefined) as the molecule, how does the Potency read?
**A.** inconclusive [inhibitor, single point]

**Q.** For `Oc1ccc2ccccc2c1C=Nc1ccc(N2CCOCC2)cc1`, which Potency is on record?
**A.** inactive

**Q.** With `Cc1ccc([N+](=O)[O-])cc1NC(=S)NCCc1ccccc1` as the molecule, how does the Potency read?
**A.** inconclusive [inhibitor, single point]

**Q.** For `O=C(NCc1ccc2c(c1)OCO2)c1ccc2c(=O)n(C3CCCC3)c(=O)[nH]c2c1`, which Potency is on record?
**A.** inconclusive [inhibitor, single point]

**Q.** With `Cc1ccc(NC(=S)Nc2cc(C(=O)O)ccc2N2CC3CC(C2)c2cccc(=O)n2C3)cc1C` (centres undefined) as the molecule, how does the Potency read?
**A.** inconclusive [inhibitor, single point]

**Q.** How did the Potency turn out when `CN(C(=S)NC(=O)c1ccc(Cl)cc1)C1CCCCC1` was run?
**A.** inconclusive [inhibitor, partial curve, poor fit]

**Q.** With `CC1(C(=O)NCc2ccccc2Br)CCN1Cc1ccc(-c2ccccn2)cc1` (centres undefined) as the molecule, how does the Potency read?
**A.** inconclusive [inhibitor, single point]

**Q.** Which Potency does the source give for `O=C(COC(=O)c1ccc(O)cc1O)Nc1ccc2ccccc2c1` here?
**A.** inconclusive [inhibitor, partial curve, poor fit]

**Q.** For `Fc1cc(F)c(C2SCCN2C(=S)Nc2cccc(C(F)(F)F)c2)c(F)c1` (centres undefined), which Potency is on record?
**A.** inconclusive [inhibitor, partial curve, poor fit]

**Q.** For `Cc1cccc(COCC(Cc2ccccc2)N2CCN(C(=O)c3ccc(C(F)(F)F)cc3)CCC2=O)c1` (centres undefined), which Potency is on record?
**A.** active: 11.2 µM

**Q.** Which Potency does the source give for `CC1CCN(c2ncnc3c2cnn3-c2ccc(F)cc2)CC1` here?
**A.** inactive

**Q.** With `COc1ccccc1N1CCN(C(=O)c2cc3cc(Cl)ccc3[nH]2)CC1` as the molecule, how does the Potency read?
**A.** inconclusive [inhibitor, full curve, poor fit]

**Q.** With `Cc1cccc(C)c1OCc1nnc(SCC(=O)NCCc2ccccc2)o1` as the molecule, how does the Potency read?
**A.** inconclusive [inhibitor, full curve, poor fit]

**Q.** `CC(=O)N(Cc1cc(=O)[nH]c2ccccc12)c1ccc(C)cc1C` was tested. Which Potency did it give?
**A.** inconclusive [inhibitor, single point]

**Q.** `CCN1CCN(C(=S)c2ccc(O)cc2)CC1` was tested. Which Potency did it give?
**A.** inactive

**Q.** For `CC(C)COc1ccc(CN=C(N)N=C(N)N)cc1Cl`, which Potency is on record?
**A.** inconclusive [inhibitor, partial curve, poor fit]

**Q.** With `O=C(Cc1ccc(Cl)cc1)Nc1cccc(-c2nnc(-c3ccco3)o2)c1` as the molecule, how does the Potency read?
**A.** inactive

**Q.** How did the Potency turn out when `CC(C)[C@@H]1CC[C@@H](C)c2c(-c3ccccc3)n[nH]c21` was run?
**A.** inconclusive [inhibitor, partial curve, poor fit]

**Q.** For `Cc1ccccc1Cn1c(SCc2ccc(C(=O)NC(C)c3ccccc3)cc2)nc2ccncc21` (centres undefined), which Potency is on record?
**A.** inconclusive [inhibitor, partial curve, poor fit]

**Q.** How did the Potency turn out when `CCNC(=S)Nc1cc2oc3ccccc3c2cc1OC` was run?
**A.** inconclusive [inhibitor, single point]

**Q.** Which Potency does the source give for `CCOC(=O)C1(CCc2ccccc2)CCN(Cc2ccc(C(=O)OC)cc2)CC1` here?
**A.** inconclusive [inhibitor, partial curve, poor fit]

**Q.** `Cc1cccc(Cn2c(=O)n(-c3ccc(CC(=O)NCc4ccco4)cc3)c(=O)c3sccc32)c1` was tested. Which Potency did it give?
**A.** inconclusive [inhibitor, partial curve, poor fit]

**Q.** Which Potency does the source give for `Cc1cccc(OCCCC(=O)NC2CCCCC2)c1` here?
**A.** inconclusive [inhibitor, single point]

**Q.** Which Potency does the source give for `COc1ccc(C(=O)/C=C/c2ccccc2)c(O)c1` here?
**A.** inconclusive [inhibitor, single point]

**Q.** How did the Potency turn out when `COc1ccc(-c2cc3c(=O)n(CC(=O)NCc4ccc(Cl)cc4)ncn3n2)cc1` was run?
**A.** inactive

**Q.** `COc1ccc(C2(C)NC(=O)N(CC(=O)NC(C)c3ccc(CC(C)C)cc3)C2=O)cc1` (centres undefined) was tested. Which Potency did it give?
**A.** inconclusive [inhibitor, single point]

**Q.** With `CC(C)(C)n1ncc2c(=O)n(CC(=O)NCc3ccco3)cnc21` as the molecule, how does the Potency read?
**A.** inconclusive [inhibitor, single point]

**Q.** Which Potency does the source give for `CC(C)(C)n1cnc2cc(NC(=O)c3ccco3)ccc21` here?
**A.** inconclusive [inhibitor, partial curve, poor fit]

**Q.** How did the Potency turn out when `O=C(OCC(=O)c1cccc2ccccc12)c1ccc(CO)cc1` was run?
**A.** inconclusive [inhibitor, single point]

**Q.** For `Cn1c2ccccc2c2c(C(=O)N3CCN(c4ccccc4)CC3)cn(C3CCCC3)c(=O)c21`, which Potency is on record?
**A.** inconclusive [inhibitor, partial curve, poor fit]

**Q.** For `CCC(O)CNC(=O)NC(=C(Cl)Cl)c1ccc(C)c(F)c1` (centres undefined), which Potency is on record?
**A.** inconclusive [inhibitor, full curve, poor fit]

**Q.** How did the Potency turn out when `O=C(Cn1cc(C(=O)C(F)(F)F)c2ccccc21)NCc1ccco1` was run?
**A.** inconclusive [inhibitor, partial curve, poor fit]

**Q.** How did the Potency turn out when `COc1cccc(CN2CCc3nc(Nc4ccc5c(c4)OCCO5)ncc3C2)c1` was run?
**A.** inconclusive [inhibitor, partial curve, poor fit]

**Q.** For `CCn1c(=O)n(-c2ccc(C)c(F)c2)c(=O)c2sc3ccccc3c21`, which Potency is on record?
**A.** inactive

**Q.** For `O=C(Nc1nnc(C2COc3ccccc3O2)o1)c1ccc(F)cc1` (centres undefined), which Potency is on record?
**A.** inconclusive [inhibitor, partial curve]
